From the supplement of paper PMC7826260
The other results are listed elsewhere or left out. Cleavage of a single-stranded DNA pool by Rep nickase domains was read by sequencing at 3 µM enzyme and 37 °C for 1 h; the strands have 90 letters, of which the middle is given. Uncut reads are compared with the no-enzyme pool on a log2 scale; more negative means more cut, near 0 not cut, and no call is made. Shares of all reads are compared, so uncut sequences can rise above 0 when many others are cut.

Experiments:
Assay in all cases: uncleaved DNA left, log2 of reads against the no-enzyme library (log2 ratio); higher = less cleavage (more negative = more Rep cleavage of the k-mer); sequences stand for … in CTCGTCCG…ACCGGAGA
[1] = test system: T1, Rep nickase domain of Muscovy duck circovirus
T1 sequence (Rep 1-111, printed without the tag): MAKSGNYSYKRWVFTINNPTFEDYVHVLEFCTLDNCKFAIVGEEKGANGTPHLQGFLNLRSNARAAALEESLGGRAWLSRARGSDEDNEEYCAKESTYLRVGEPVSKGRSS
Description: (§1)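 A pool of 90-nt single-stranded DNAs with seven random bases just before the constant AC of the nick site (name = the seven bases) was cut by 3 µM recombinant His6-SUMO-tagged Rep nickase domain (300 nM DNA, 50 mM HEPES pH 8.0, 50 mM NaCl, 1 mM MnCl2, 1 h, 37 °C, three replicates). Uncut DNA was amplified and sequenced.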

[2] = test system: T2, Rep nickase domain of banana bunchy top virus
T2 sequence (Rep 1-94, printed without the tag): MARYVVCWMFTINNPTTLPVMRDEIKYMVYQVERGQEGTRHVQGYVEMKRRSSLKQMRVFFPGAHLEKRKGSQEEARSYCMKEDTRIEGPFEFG
Description: as §1

[3] = test system: T3, Rep nickase domain of cabbage leaf curl virus
T3 sequence (Rep 1-116, printed without the tag): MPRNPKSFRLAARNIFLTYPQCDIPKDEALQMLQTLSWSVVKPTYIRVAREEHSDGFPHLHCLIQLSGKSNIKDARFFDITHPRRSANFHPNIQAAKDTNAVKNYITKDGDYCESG
Description: as §1

[4] = test system: T4, Rep nickase domain of chickpea chlorotic dwarf virus
T4 sequence (Rep 1-124, printed without the tag): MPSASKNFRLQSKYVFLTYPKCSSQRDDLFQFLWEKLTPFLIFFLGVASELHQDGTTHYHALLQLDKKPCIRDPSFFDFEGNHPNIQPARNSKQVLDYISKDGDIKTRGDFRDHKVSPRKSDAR
Description: as §1

[5] = test system: T5, Rep nickase domain of faba bean necrotic yellows virus
T5 sequence (Rep 1-98, printed without the tag): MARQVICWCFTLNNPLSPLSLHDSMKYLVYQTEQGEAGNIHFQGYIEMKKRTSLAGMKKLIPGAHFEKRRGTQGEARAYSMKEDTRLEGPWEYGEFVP
Description: as §1

[6] = test system: T6, Rep nickase domain of maize striate mosaic virus
T6 sequence (Rep 1-117, printed without the tag): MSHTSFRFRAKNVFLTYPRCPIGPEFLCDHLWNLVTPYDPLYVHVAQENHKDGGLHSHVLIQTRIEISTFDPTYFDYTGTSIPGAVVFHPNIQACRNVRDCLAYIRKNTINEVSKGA
Description: as §1

[7] = test system: T7, Rep nickase domain of porcine circovirus 2
T7 sequence (Rep 2-116, printed without the tag): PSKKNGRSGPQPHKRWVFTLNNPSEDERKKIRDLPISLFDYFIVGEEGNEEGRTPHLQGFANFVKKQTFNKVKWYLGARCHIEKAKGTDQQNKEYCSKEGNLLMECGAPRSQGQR
Description: as §1

[8] = test system: T8, Rep nickase domain of tomato golden mosaic virus
T8 sequence (Rep 1-124, printed without the tag): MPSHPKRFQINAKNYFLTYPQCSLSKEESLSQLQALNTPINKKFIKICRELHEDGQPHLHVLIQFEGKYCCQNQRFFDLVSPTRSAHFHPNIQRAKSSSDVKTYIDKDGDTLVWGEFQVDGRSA
Description: as §1

[9] = test system: T9, Rep nickase domain of tomato yellow leaf curl virus
T9 sequence (Rep 1-136, printed without the tag): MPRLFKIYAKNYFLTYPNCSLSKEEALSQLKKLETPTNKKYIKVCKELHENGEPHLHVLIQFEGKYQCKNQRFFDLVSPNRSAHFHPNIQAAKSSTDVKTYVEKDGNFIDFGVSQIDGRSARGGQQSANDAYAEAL
Description: as §1

[10] = test system: T10, Rep nickase domain of wheat dwarf virus
T10 sequence (Rep 1-137, printed without the tag): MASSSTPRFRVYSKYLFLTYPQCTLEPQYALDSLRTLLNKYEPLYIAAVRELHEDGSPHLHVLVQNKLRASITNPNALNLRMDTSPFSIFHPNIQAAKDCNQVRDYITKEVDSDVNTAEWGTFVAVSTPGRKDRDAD
Description: as §1

| Sequence | uncleaved DNA left (log2) [1] | uncleaved DNA left (log2) [2] | uncleaved DNA left (log2) [3] | uncleaved DNA left (log2) [4] | uncleaved DNA left (log2) [5] | uncleaved DNA left (log2) [6] | uncleaved DNA left (log2) [7] | uncleaved DNA left (log2) [8] | uncleaved DNA left (log2) [9] | uncleaved DNA left (log2) [10] |
| --- | --- | --- | --- | --- | --- | --- | --- | --- | --- | --- |
| ACACCGT | -0.0437 | -0.173 | -0.503 | -0.649 | 0.0355 | -0.979 | 0.0792 | -0.0333 | -0.241 | -0.144 |
| CGTCAAG | 0.00434 | -0.00214 | -0.602 | -0.412 | 0.0493 | -0.939 | 0.167 | -0.0185 | -0.177 | -0.126 |
| CTGCAAT | 0.0173 | 0.0913 | -0.156 | -0.446 | 0.134 | -0.738 | 0.042 | 0.065 | -0.0439 | 0.131 |
| GGCTAGT | -0.0907 | 0.0265 | 0.28 | 0.752 | -0.0586 | 1.64 | -1.25 | 0.0603 | 0.0203 | 0.0763 |
| GACCTCT | 0.111 | 0.0526 | 0.188 | -0.649 | -0.0423 | 0.519 | 0.0587 | 0.14 | -0.0221 | 0.2 |
| TAACGCG | 0.0843 | -0.0256 | -0.729 | 0.209 | -0.00973 | -0.449 | 0.121 | -0.031 | 0.0157 | -0.0661 |
| GTCTCTC | 0.133 | 0.0136 | 0.365 | 0.935 | 0.00359 | 1.64 | 0.106 | 0.0992 | 0.0892 | 0.0654 |
| TTCACCA | 0.0209 | 0.0409 | 0.113 | -1.18 | -0.0194 | 0.162 | -0.349 | -0.0112 | 0.0112 | 0.0443 |
| CGGTCCG | -0.0925 | -0.00614 | -0.851 | -0.177 | -0.0825 | -0.564 | 0.0213 | -0.0419 | -0.0726 | -0.119 |
| TTATCAA | 0.115 | 0.215 | 0.825 | 1.65 | 0.104 | 1.92 | 0.0448 | 0.0951 | 0.133 | 0.237 |
| TGATGTA | -0.116 | -0.0307 | 0.111 | -0.538 | 0.0458 | -0.113 | -0.166 | 0.0279 | 0.206 | 0.0373 |
| AATAAAA | 0.0585 | 0.0567 | -0.0427 | -0.316 | 0.0555 | -0.657 | 0.118 | 0.165 | -0.0224 | 0.117 |
| TAGCTAC | 0.0493 | -0.0179 | -0.0176 | -1.46 | 0.00815 | -0.0393 | -0.203 | -0.0319 | 0.0576 | -0.125 |
| CTCAACT | -0.0249 | 0.0266 | -0.325 | -2.7 | 0.00688 | -0.809 | -0.206 | -0.00737 | -0.0126 | 0.0744 |
| CGCTAAT | -1.73 | -0.0682 | -0.0236 | -0.596 | 0.151 | -0.282 | -2.56 | 0.0474 | 0.149 | -0.0351 |
| TATCCCT | -0.0753 | -0.0804 | -0.504 | -2.94 | -0.0421 | -0.18 | -1.51 | -0.181 | -0.0601 | -0.108 |
| TACGAGG | 0.0834 | 0.0458 | 0.402 | 0.91 | 0.13 | 0.805 | 0.117 | 0.207 | -0.0215 | 0.102 |
| ATCAGTC | -0.0231 | 0.00392 | -0.188 | -0.19 | 0.0209 | -1.01 | 0.127 | -0.0465 | 0.0293 | -0.0455 |
| GTGCTAT | -0.0554 | 0.087 | 0.296 | 0.901 | -0.0931 | 1.64 | -0.0254 | 0.095 | 0.0261 | 0.0262 |
| CGAGGGT | -0.00883 | 0.136 | 0.183 | 1.23 | 0.0115 | 1.68 | 0.194 | 0.0564 | 0.0397 | 0.0736 |
| TCACTGA | -0.0368 | -0.0293 | -0.0874 | 0.293 | 0.00817 | 0.825 | 0.0624 | -0.0971 | 0.000616 | -0.0628 |
| ACGAGCA | -0.0358 | 0.058 | -0.358 | -0.486 | -0.113 | -0.995 | -2.37 | 0.0324 | 0.0451 | -0.0532 |
| GTCGTGA | -0.0175 | -0.00633 | 0.28 | 0.621 | -0.0711 | 1.37 | 0.00951 | -0.0743 | 0.0628 | 0.0239 |
| GGTTTTC | -0.085 | 0.0952 | 0.301 | 0.953 | 0.0448 | 1.63 | 0.0625 | 0.025 | 0.0814 | 0.0959 |
| TTCAACC | -0.27 | 0.0115 | 0.107 | -1.45 | -0.118 | -0.165 | -1.12 | 0.03 | 0.0416 | 0.023 |
| CAGTACC | -0.065 | -0.113 | -0.0808 | -0.727 | -0.452 | -0.236 | -2.79 | -0.0507 | 0.0953 | 0.14 |
| AACGGGA | -0.0966 | -0.08 | 0.434 | 0.735 | -0.0016 | 1.45 | 0.112 | -0.0275 | -0.0639 | -0.103 |
| TACTACC | -3.18 | -0.668 | -2.36 | -2.77 | -2.59 | -0.453 | -3.61 | -0.939 | -0.198 | -2.02 |
| TTCAGCG | 0.099 | 0.119 | -0.565 | 0.707 | 0.161 | -0.688 | 0.301 | 0.053 | 0.139 | 0.0824 |
| ACATCTT | -2.67 | -0.0422 | -0.463 | -2.66 | 0.134 | -0.754 | -3.08 | -0.0574 | -0.0361 | -0.0561 |
